# Test results reported in PubChem BioAssay AID1347165 (National Center for Advancing Translational Sciences (NCATS), 2019).
# Values joined by “and” are separate entries in the source; they are usually repeats but may differ in a detail not shown here. Equal values may be shown once. About 5,700 (2.6%) of roughly 220,000 compounds were called active. Inconclusive means that the source gave no clear call. Such entries were picked first, then a sample of the others. Calls follow the shape of the dose curve; as a rule, active = well fitted inhibition curve with a large enough effect; inconclusive = small, poorly fitted or top-dose-only effect; inactive = no such curve, though single readings can be large or run the other way. A potency beside an inconclusive call is a rough fit, not a confirmed value.
# Target: Lysine-specific demethylase 5B (Homo sapiens) (UniProt Q9UGL1)
# Assay: Primary screen for KDM5B Histone Demethylases FDH-coupled qHTS; also: nearly all actives have a fitted effect of over 70% in size
# Details: FDH-coupled NADH fluorescence (FDH is formaldehyde dehydrogenase); series mostly up to 57.7 µM
# Procedure, shortened: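 Compound dilutions met 200 nM (final) KDM5BΔAP for 10 min at room temperature before substrate addition. The substrate mix held 12.5 µM H3K4me3 with cofactors 25 µM α-ketoglutarate and 50 µM Fe²⁺. NADH signal gain over 30 min defined activity.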
# Potency is read from the fitted curve at half-maximal effect; tags tell the direction and shape of the fitted curve.
# UniProt Q9UGL1, sequence (Q9UGL1 whole entry, looked up): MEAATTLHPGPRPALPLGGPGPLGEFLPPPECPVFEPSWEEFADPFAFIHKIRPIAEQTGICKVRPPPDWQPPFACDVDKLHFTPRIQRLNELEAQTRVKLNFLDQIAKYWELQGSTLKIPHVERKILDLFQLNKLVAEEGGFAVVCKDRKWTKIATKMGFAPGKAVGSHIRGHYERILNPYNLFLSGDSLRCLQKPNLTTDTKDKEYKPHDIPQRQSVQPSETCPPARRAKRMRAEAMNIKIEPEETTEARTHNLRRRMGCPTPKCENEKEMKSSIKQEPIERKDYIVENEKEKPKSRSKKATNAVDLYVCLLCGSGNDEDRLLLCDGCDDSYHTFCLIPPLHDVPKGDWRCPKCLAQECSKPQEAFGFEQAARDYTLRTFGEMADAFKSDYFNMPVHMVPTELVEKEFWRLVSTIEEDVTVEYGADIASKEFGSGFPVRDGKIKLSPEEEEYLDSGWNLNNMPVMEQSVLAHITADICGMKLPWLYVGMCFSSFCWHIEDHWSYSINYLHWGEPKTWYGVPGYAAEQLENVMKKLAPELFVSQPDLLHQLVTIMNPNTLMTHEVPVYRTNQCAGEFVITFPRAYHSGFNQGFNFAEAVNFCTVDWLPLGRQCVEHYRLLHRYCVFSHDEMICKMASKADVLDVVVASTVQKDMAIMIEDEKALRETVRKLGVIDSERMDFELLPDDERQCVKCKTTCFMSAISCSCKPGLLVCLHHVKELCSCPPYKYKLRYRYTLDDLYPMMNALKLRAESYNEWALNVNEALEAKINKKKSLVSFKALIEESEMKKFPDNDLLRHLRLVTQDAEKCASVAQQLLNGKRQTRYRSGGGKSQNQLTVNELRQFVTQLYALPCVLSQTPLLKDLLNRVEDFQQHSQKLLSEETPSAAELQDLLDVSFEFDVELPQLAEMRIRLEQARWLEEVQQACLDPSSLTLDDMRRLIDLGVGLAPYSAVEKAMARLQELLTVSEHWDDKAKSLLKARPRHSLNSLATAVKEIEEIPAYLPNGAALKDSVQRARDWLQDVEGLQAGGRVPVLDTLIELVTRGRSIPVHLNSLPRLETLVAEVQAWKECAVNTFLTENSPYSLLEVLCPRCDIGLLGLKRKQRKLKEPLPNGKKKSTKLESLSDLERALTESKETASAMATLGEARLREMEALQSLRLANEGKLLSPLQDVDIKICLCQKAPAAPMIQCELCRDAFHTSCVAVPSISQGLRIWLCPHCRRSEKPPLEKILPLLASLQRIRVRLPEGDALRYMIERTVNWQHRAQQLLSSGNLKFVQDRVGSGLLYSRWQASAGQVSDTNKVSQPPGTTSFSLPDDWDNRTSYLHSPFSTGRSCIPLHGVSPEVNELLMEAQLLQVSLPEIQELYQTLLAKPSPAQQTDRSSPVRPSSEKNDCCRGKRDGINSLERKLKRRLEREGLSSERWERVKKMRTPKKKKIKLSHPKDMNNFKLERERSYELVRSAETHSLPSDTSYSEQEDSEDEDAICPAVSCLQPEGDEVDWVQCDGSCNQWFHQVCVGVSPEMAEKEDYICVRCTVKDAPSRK
row,SMILES,Potency
1,CCc1nn(CCCC(=O)NCc2ccc(OC(C)C)cc2)c(=O)c2cc3occc3n12,inactive
2,COc1ccc(-c2nnc3n(CCc4ccccc4)c(=O)c4ccccc4n23)cc1,inactive
3,Oc1c(CN2CCCC(C(F)(F)F)C2)cc(Cl)c2ccccc12 (stereo unspecified),"inconclusive: 31.6 µM [inhibitor, single point]"
4,O=C(c1cc2cc(Br)ccc2[nH]1)N1CCc2ccccc21,"inconclusive: 39.8 µM [inhibitor, single point]"
5,CCC1CCCCN1C(=S)NC(=O)c1cccc([N+](=O)[O-])c1 (stereo unspecified),inactive
6,Clc1ccc(-n2ncc3c(NC4CCCC4)ncnc32)cc1,"inconclusive: 35.5 µM [inhibitor, partial curve, poor fit] and inconclusive: 39.8 µM [inhibitor, single point]"
7,Cn1nnnc1SCCCNCc1ccccc1OCc1ccc(Cl)cc1,"inconclusive: 28.2 µM [inhibitor, partial curve, poor fit]"
8,C/C(=N\NC(N)=S)c1cc(C(C)(C)C)cc2c1CCC2(C)C,"inconclusive: 12.6 µM [inhibitor, partial curve, poor fit] and inconclusive: 31.6 µM [inhibitor, partial curve, poor fit]"
9,COc1ccc(Nc2ncnc3sc4c(c23)CCCC4)cc1,"inconclusive: 39.8 µM [inhibitor, single point]"
10,O=c1[nH]c(=O)n(Cc2ccccc2)c2c1C(C(F)(F)F)(C(F)(F)F)N=C(c1cccs1)N2,inactive
11,CCOC(=O)C1CCN(C(=O)Cn2nc(CC)n3c(cc4sccc43)c2=O)CC1,"inconclusive: 25.1 µM [inhibitor, partial curve, poor fit]"
12,O=[S+]([O-])(c1cccs1)N1CC(N2CCc3ccccc32)C1,"inconclusive: 89.1 µM [inhibitor, partial curve, poor fit]"
13,N#C/C(=C/c1cccc(O)c1)c1ccc(C(F)(F)F)cn1,"inconclusive: 14.1 µM [inhibitor, partial curve, poor fit]"
14,COC(=O)c1ccc(C(=O)OC)c(NC(=O)CN(c2ccccc2)S(=O)(=O)N(C)C)c1,"inconclusive: 25.1 µM [inhibitor, partial curve, poor fit]"
15,Cc1ccsc1CN1CCc2nnc([C@@H]3C[C@@H](O)CN3C)n2CC1,"inconclusive: 39.8 µM [inhibitor, partial curve, poor fit]"
16,Cc1ncsc1CN1CCCCCNC(=O)CC1c1ccccc1 (stereo unspecified),"inconclusive: 39.8 µM [inhibitor, single point]"
